These results are taken from the supplement of paper PMC3334620.

The full ranking holds about 33,000 sequences; the median of “E-score (-0.5 to 0.5)” is about -0.013, and the highest 2% start at about 0.3. Some of the results follow.

This experiment has as its target T1, Msn1 (UniProt P22148).
T1 sequence: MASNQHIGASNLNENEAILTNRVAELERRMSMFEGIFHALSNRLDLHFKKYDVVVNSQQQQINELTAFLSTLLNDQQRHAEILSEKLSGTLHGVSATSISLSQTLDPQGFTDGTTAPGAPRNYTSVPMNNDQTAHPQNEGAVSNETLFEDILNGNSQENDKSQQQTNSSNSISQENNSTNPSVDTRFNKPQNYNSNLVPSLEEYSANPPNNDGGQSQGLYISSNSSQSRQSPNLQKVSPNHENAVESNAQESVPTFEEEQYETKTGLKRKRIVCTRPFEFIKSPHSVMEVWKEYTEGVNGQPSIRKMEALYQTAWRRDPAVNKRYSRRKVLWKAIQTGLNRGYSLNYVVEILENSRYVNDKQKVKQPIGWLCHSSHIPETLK
As to the kind of experiment: PBM E-score (8-mer binding enrichment) (E-score (-0.5 to 0.5)); higher = stronger / more preferred TF binding; most listed sequences are background and not binding sites. As to conditions: protein concentration: 200 nM; construct: GST-full length. In a few lines:
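E-scores (a modified Wilcoxon-Mann-Whitney statistic) were assigned by the Universal PBM Analysis Suite to every ungapped eight-base word pooled with its reverse complement. The input came from universal all-10-mer Agilent arrays made double-stranded by primer extension and probed with GST-tagged yeast transcription factors at about 100-200 nM. Fluorescent anti-GST detected bound protein, and masliner normalised the scans.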
As for ACCATCTC, the “PBM E-score” value is -0.0822.

Regarding GGTTTTGA, the “PBM E-score” value turned out to be 0.0871.

For the sequence GGTTCAGA, the “PBM E-score” value is -0.136.

Regarding AGTGCGAT, the “PBM E-score” value was -0.113.

Regarding TCTGCCCA, the “PBM E-score” value amounted to 0.0034.

For the sequence CCGATACC, the “PBM E-score” value is -0.00251.

As for TCCAGAGA, the “PBM E-score” value was -0.172.

Regarding TCAATAAA, the “PBM E-score” value was 0.103.

On to CTTTTGGA, for which the “PBM E-score” value came out at 0.163.

Regarding AGAGGACC, the “PBM E-score” value was -0.208.

Take CTGGACAA: the “PBM E-score” value is 0.43.

On to CAACCCAG, for which the “PBM E-score” value was -0.0391.

As for ACCACCGA, the “PBM E-score” value was found to be 0.00223.

For CGACAAAA, the “PBM E-score” value is 0.423.

For the sequence CGCATTAA, the “PBM E-score” value worked out at 0.183.

As for AACCTTGG, the “PBM E-score” value is -0.192.

For the sequence CCTCCTGC, the “PBM E-score” value was -0.159.

As for CCGAACCA, the “PBM E-score” value is -0.166.

As for TCGGAGCA, the “PBM E-score” value was 0.232.

As to AAATGCCG, the “PBM E-score” value was 0.0238.

In the case of CCCTCTAC, the “PBM E-score” value was -0.204.

As for AATGATTC, the “PBM E-score” value is 0.177.

On to AGCCCGCA, for which the “PBM E-score” value is -0.146.

Take ACCTGAGA: the “PBM E-score” value is 0.0537.

With ACCGCAGT, the “PBM E-score” value was -0.0514.

In the case of GAGCCCGA, the “PBM E-score” value was -0.128.

In the case of ACCGACCC, the “PBM E-score” value was -0.107.

Regarding AAAAGGAC, the “PBM E-score” value stood at 0.248.

Regarding AACCACTG, the “PBM E-score” value is 0.0962.

As to AGCGTAGC, the “PBM E-score” value is -0.136.

For the sequence GAGATTGC, the “PBM E-score” value was -0.0916.

Consider CTCCGCCC, for which the “PBM E-score” value was -0.226.

In the case of CCTTCGTC, the “PBM E-score” value came out at 0.108.

Take GCAGAGTA: the “PBM E-score” value is -0.0382.

Take AATAGCGG: the “PBM E-score” value was determined as 0.0486.

Consider GAGTATTA, for which the “PBM E-score” value is 0.00348.

As for CAAACGGC, the “PBM E-score” value was -0.141.

Take AAGCTGAC: the “PBM E-score” value was -0.00835.

Regarding CCGGCATC, the “PBM E-score” value is -0.0891.

With CCTGTGAC, the “PBM E-score” value was -0.0638.

Consider ATTGAAGG, for which the “PBM E-score” value was -0.113.

As for CAACACCG, the “PBM E-score” value was -0.12.

As to CTATAGTC, the “PBM E-score” value is -0.138.

For AAGAGTAA, the “PBM E-score” value is 0.0499.

ACTTACAA: the “PBM E-score” value amounted to 0.177.

Turning to AACCGTAT, the “PBM E-score” value was -0.139.

ATTCCTCG: the “PBM E-score” value was 0.0159.

On to ACTCCCCA, for which the “PBM E-score” value is -0.0702.

For the sequence CGTAATCA, the “PBM E-score” value is 0.101.

As to CCGCCCCA, the “PBM E-score” value was -0.0542.

Regarding AGTGTCTA, the “PBM E-score” value was determined as 0.188.

Take ATGGGTAA: the “PBM E-score” value came to 0.0578.

GTGGCAAC: the “PBM E-score” value stood at 0.0174.

In the case of CTTACTCC, the “PBM E-score” value is -0.0325.

For CCCTATGC, the “PBM E-score” value is -0.199.

Take ACTTCGGA: the “PBM E-score” value came out at 0.108.

On to AGAAAGCG, for which the “PBM E-score” value is -0.107.

With CCTAAGGA, the “PBM E-score” value was -0.0865.

As for AGGCGACT, the “PBM E-score” value was -0.0861.

Consider GAGACTAA, for which the “PBM E-score” value worked out at 0.131.

For the sequence GCGGGTCA, the “PBM E-score” value was -0.0271.

As for AGCCGTTA, the “PBM E-score” value is 0.0281.

Consider CGGGCAGC, for which the “PBM E-score” value was -0.122.

With CACCCGCG, the “PBM E-score” value turned out to be 0.0812.

Turning to CTAGTCAG, the “PBM E-score” value was -0.133.

GCCGCGGA: the “PBM E-score” value was -0.0181.

CGGATCCG: the “PBM E-score” value came to 0.0823.

In the case of GGCCCTAA, the “PBM E-score” value was -0.0622.

In the case of TATAGGGA, the “PBM E-score” value was -0.0109.

Regarding AGATGGTC, the “PBM E-score” value is -0.158.

In the case of CAGAGTCA, the “PBM E-score” value was -0.127.

Turning to TATTCCCA, the “PBM E-score” value was determined as 0.0539.

Consider AACTACGG, for which the “PBM E-score” value was -0.062.

Consider CGATCTTC, for which the “PBM E-score” value is -0.0892.

As for CCCCGTTA, the “PBM E-score” value is -0.175.

With CAGCCCAG, the “PBM E-score” value is -0.141.

As for AGGAGGTC, the “PBM E-score” value is -0.244.

Regarding AACGCTCT, the “PBM E-score” value is -0.156.

Turning to CTTACAAG, the “PBM E-score” value is 0.043.

Take AAATTTGA: the “PBM E-score” value came to 0.19.

For the sequence GTACTGAC, the “PBM E-score” value was -0.0285.

In the case of GCGATTCC, the “PBM E-score” value is -0.175.

Consider ACATACCT, for which the “PBM E-score” value came to 0.121.

On to CTGATACC, for which the “PBM E-score” value worked out at 0.0072.

With CGGCGCTC, the “PBM E-score” value is -0.0454.

Take TCGCGTAA: the “PBM E-score” value amounted to 0.0414.
